Reference: paper PMC4336329 (PLoS ONE, 2015)
Hit rate of the full screen: of about 310,000 compounds, about 14,000 (4.5%) showed an effect of 50% or more. Effects have a minus sign here. This is one part of the list.

biological target: human ether-à-go-go-related gene (hERG) potassium channel (human, UniProt Q12809); test: primary screen, population patch clamp on CHO cells stably expressing hERG
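Note: peak tail current of the secondary pulse compared with the same well before compound.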

Chain of human ether-à-go-go-related gene (hERG) potassium channel (Q12809 whole entry, looked up): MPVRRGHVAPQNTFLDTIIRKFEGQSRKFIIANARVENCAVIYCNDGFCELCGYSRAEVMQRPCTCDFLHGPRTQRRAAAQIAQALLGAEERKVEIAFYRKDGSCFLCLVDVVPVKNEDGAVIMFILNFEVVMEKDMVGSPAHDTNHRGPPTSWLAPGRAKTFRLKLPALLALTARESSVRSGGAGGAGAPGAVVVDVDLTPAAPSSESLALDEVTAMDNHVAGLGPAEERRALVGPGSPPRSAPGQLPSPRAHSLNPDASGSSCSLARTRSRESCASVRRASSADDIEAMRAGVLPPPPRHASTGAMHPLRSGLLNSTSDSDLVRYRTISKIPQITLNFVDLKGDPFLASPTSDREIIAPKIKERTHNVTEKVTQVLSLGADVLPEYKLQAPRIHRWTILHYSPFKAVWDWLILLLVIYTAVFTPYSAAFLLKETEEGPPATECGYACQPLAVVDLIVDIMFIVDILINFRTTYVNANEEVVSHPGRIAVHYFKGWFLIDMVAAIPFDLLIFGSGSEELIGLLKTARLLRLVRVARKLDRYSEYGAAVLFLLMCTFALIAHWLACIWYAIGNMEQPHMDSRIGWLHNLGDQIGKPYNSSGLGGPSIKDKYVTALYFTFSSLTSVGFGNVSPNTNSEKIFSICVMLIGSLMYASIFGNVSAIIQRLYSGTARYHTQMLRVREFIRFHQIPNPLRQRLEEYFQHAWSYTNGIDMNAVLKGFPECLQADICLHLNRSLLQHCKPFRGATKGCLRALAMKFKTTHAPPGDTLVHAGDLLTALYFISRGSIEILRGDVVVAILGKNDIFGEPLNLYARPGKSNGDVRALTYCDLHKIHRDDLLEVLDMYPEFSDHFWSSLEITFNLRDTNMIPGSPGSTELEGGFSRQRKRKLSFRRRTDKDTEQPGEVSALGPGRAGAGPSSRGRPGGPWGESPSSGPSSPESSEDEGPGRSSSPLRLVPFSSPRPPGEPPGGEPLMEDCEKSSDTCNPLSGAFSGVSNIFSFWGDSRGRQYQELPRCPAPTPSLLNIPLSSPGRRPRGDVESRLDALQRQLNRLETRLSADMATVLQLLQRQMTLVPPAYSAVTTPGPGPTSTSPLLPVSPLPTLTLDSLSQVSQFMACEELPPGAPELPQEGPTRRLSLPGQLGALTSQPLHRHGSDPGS

| SMILES | hERG current change (%, negative = inhibition) at 10uM |
| --- | --- |
| CCO/C=C1/C(=O)N(c2ccc(OC)cc2)C(=O)c2ccccc21 | -11.9% |
| COc1cc(/C=C/C(=O)N2CCN(C(=O)/C=C/c3cc(OC)c(OC)c(OC)c3)CC2)cc(OC)c1OC | 6.31% |
| CCOC(=O)c1cnn(Cc2ccccc2)c1N | 8.01% |
| Oc1ccc(N=Nc2ccc3c(c2)OCCO3)c(O)c1 | 22.6% |
| N#Cc1cccc(NC(=O)COC(=O)c2ccccc2Sc2ccccc2C#N)c1 | -0.292% |
| O=C(Nc1ccccc1N1CCOCC1)c1ccc2ccccc2n1 | 16.2% |
| CCN(CC(=O)Nc1ccc(OC)cc1)C(=O)CSCc1c(C)noc1C | -10.2% |
| Cc1ccccc1OCCSc1nnc(-c2cccnc2)n1N | 34.6% |
| COc1ccc(CNc2ncc(-c3ccc(F)cc3)n2C)c2ccccc12.O=C(O)C(=O)O | -35.1% |
| O=C(Nc1cccc(C(=O)O)c1)/C(=C\c1ccc2c(c1)OCO2)NC(=O)c1ccccc1 | 19% |
| COCCn1c(=NC(=O)CCS(=O)(=O)c2ccccc2)sc2cc(F)ccc21 | -8.27% |
| CN(C)N=Nc1nc[nH]c1C(N)=O | 2.75% |
| CCOC(=O)c1c(S(=O)(=O)NCC(C)c2ccccc2)c(C)n(C)c1C (stereo not drawn) | -17.8% |
| O=C(c1ccc(CN2CCc3ccccc3C2)cc1)N1CCCCC1 | -9.72% |
| CC(/C=N/Nc1nc(N2CCCCC2)nc(N2CCCCC2)n1)=C\c1ccccc1 | 0.942% |
| CC(C)CNC(=O)c1noc2c1CCCC2 | 8.63% |
| Cc1ccc(OCC(=O)NNC(=O)C2CCN(c3ncccn3)CC2)cc1 | -18.6% |
| O=C(c1ccccc1N(Cc1ccccc1)S(=O)(=O)c1ccccc1)N1CCOCC1 | -23.7% |
| O=C(/C=C/c1ccccc1[N+](=O)[O-])OCC(=O)c1ccccc1 | 2.42% |
| CCN1C(=O)CC(c2ccco2)Sc2ccccc21 (stereo not drawn) | -16.8% |
| CC(C)c1nnc(NC(=O)CC(=O)Nc2ccccc2C(=O)O)s1 | 4.72% |
| COc1ccc(C2CCCN2C(=S)Nc2cccc(C)c2)cc1OC (stereo not drawn) | -7.76% |
| CCOCCc1nnc(NC(=O)C(CC)c2ccccc2)s1 (stereo not drawn) | -3.07% |

| SMILES | hERG current change (%, negative = inhibition) at 10uM |
| --- | --- |
| CCOC(=O)C(CCC(=O)O)(CCC(C)C)c1csc(N)n1 (stereo not drawn) | -12.2% |
| Oc1c(C(c2ccccn2)N2CCC(Cc3ccccc3)CC2)cc(Cl)c2cccnc12 (stereo not drawn) | 27.4% |
| CSc1nsc(/C=C/Nc2ccc(F)cc2)c1C#N | 6.11% |
| CCCc1nnc(-c2cc(OC)c(OC)c(OC)c2)o1 | 19.4% |
| CSc1ncccc1C(=O)OCC(=O)c1cccs1 | 19.4% |
| Cc1ccc(CN(c2ccc(C(=O)NCc3cccnc3)cc2)S(C)(=O)=O)cc1 | -14.9% |
| CCCn1c2ccccc2c2nc3ccccc3nc21 | 13% |
| COc1ccc(C(=O)Cn2nnc(-c3ccccc3NC(=O)C(F)(F)F)n2)cc1 | -0.715% |
| Cc1ccc(NC(=O)COc2ccccc2CNC(C)(C)CC(C)(C)C)cc1 | -22.7% |
| Cc1nc(-c2ccc(S(=O)(=O)N3CCN(c4ccccc4)CC3)cc2)co1 | -0.497% |
| Nn1cnc2c(c1=O)C1(CCCCC1)Cc1ccccc1-2 | 2.08% |
| Cc1nonc1OCCN1CCN(c2ccc([N+](=O)[O-])cc2)CC1 | -98.3% |
| COc1ccc(N=C2SC(C(=O)N3CCN(c4ccc([N+](=O)[O-])cc4)CC3)CC(=O)N2C)cc1 (stereo not drawn) | -68.2% |
| CC(Oc1ccc(Cl)cc1)c1ccnn1S(C)(=O)=O (stereo not drawn) | 4.67% |
| CSc1ccc(Cl)c(C(=O)NNC(=O)c2csc(N3CCOCC3)n2)c1 | 3.28% |
| COc1ccc2nc(NC(=O)CSc3nnc(C)n3N)sc2c1 | 0.177% |
| CCN(CC)c1ccc(CNc2nc3ccccc3n2C)cc1 | -49.7% |
| FC(F)(F)c1nc(N2CCCC2)ncc1-c1nnnn1-c1ccc(Cl)cc1 | -4.4% |
| CCOCCCNS(=O)(=O)c1ccc2c(c1)OCCO2 | -8.07% |
| CSCc1ccc(C(=O)Nc2cc(C)cc(C)c2)cc1 | -6.17% |
| COc1ccccc1NC(=O)CNC(=O)c1ccc(Br)o1 | 6.05% |
| Cl.O=C(NCCOC(=O)c1ccc(C(=O)OCCNC(=O)c2cccnc2)s1)c1cccnc1 | 7.73% |
| CCOC(=O)Cc1nn(C)c(=O)c2ccccc12 | 5.42% |

| SMILES | hERG current change (%, negative = inhibition) at 10uM |
| --- | --- |
| CCCn1c(N2CCOCC2)nc2c1c(=O)[nH]c(=O)n2C | -15.5% |
| O=C(NC(=S)Nc1ccc([N+](=O)[O-])cc1O)C1CCCCC1 | 10.8% |
| CC(C)(C)N(Cc1ccccc1)C(=O)COC(=O)CNC(=O)c1ccco1 | -7.15% |
| C=CCOC(=O)C(=O)/C=C/c1coc2ccccc2c1=O | -10.2% |
| Cc1c(C(c2cccs2)c2c(C)n(C)n(-c3ccccc3)c2=O)c(=O)n(-c2ccccc2)n1C | 7.83% |
| O=C(CSc1nnc(NC(=O)c2ccccc2F)s1)Nc1ccccc1F | 30.9% |
| CCCCNC(=O)COC(=O)CNC(=O)c1cc(Cl)cc([N+](=O)[O-])c1 | 5.47% |
| O=C(COc1coc(CN2CCc3ccccc3C2)cc1=O)Nc1ccc(F)cc1F | -6.04% |
| COc1ccc(NC(=O)c2ccc(F)cc2)cc1S(=O)(=O)Nc1cc(C)ccc1Br | -7.74% |
| CC1CCCCN1C(=S)Nc1ccc2nc3n(c(=O)c2c1)CCCCC3 (stereo not drawn) | -59% |
| O=C(CS(=O)(=O)Cc1ccccc1)NCC1CCCO1 (stereo not drawn) | 4.95% |
| O=C(CN1C(=O)CCSc2ccc(S(=O)(=O)N3CCCC3)cc21)Nc1ccccc1 | 17.7% |
| CCC(C)NC(=O)CSc1nc2c(sc(=S)n2-c2cc(Cl)ccc2OC)c(=O)[nH]1 (stereo not drawn) | 18.4% |
| Cc1ccc(N(C(=O)c2ccccc2Cl)C2=NC(C)CS2)c(C)c1 (stereo not drawn) | 16.2% |
| O=C(Nc1ccc(Br)c(Cl)c1)C1CC1 | -15.4% |
| COc1ccc(N2CCN(S(=O)(=O)c3c[nH]c(=O)[nH]c3=O)CC2)cc1 | 12.3% |
| O=C(NCCc1ccccc1)c1ccnc(/C=N/O)c1 | -19.2% |
| Cc1sc(NC(=O)CCCCC(=O)Nc2sc(C)c(C)c2C(=O)O)c(C(=O)O)c1C | 2.57% |
| O=C(CSc1ccc2ccccc2c1)Nc1nc2ccccc2[nH]1 | 1.81% |
| Cc1ccccc1OCCCN1CCOCC1 | 9.44% |
| COc1ccc(CNC(=O)N2CCN(c3ccccc3)CC2)cc1 | 26.4% |
| COc1ccccc1C(=O)Nc1ccnn1C1CCN(Cc2ncc[nH]2)CC1 | -16.3% |
| O=C(CCc1nnc(CCc2ccccc2)o1)NC(c1cccnc1)C(F)(F)F (stereo not drawn) | -3.45% |

| SMILES | hERG current change (%, negative = inhibition) at 10uM |
| --- | --- |
| CCN(CC(=O)NCc1ccc(Cl)cc1)C(=O)Cc1ccccc1[N+](=O)[O-] | -63.4% |
| Cc1cc(NC(=O)CCCn2nc([N+](=O)[O-])cc2C)no1 | 5.57% |
| COc1ccc(/C=c2\sc3nc(=O)c(C)nn3c2=O)c(OC)c1 | 23% |
| Cl.Clc1ccc(CSc2nnc([C@@H]3CCCN3)o2)cc1Cl | 1.04% |
| COc1cc(S(=O)(=O)NC2CCCC2)c(OC)cc1Cl | -0.849% |
| CC1CC(C)CN(C(=O)c2ccccc2Nc2ccc(SC(F)F)cc2)C1 (stereo not drawn) | 0.904% |
| CC(C)NC(=O)CNc1ccc(C(F)(F)F)cc1[N+](=O)[O-] | 15.1% |
| CSCCC(NC(=O)COc1ccccc1)C(=O)OCC(=O)c1cc2ccccc2o1 (stereo not drawn) | 8.62% |
| CCc1ccc(NC(=S)N2CCC(NC(=O)c3ccccc3)CC2)cc1 | -2.42% |
| CSc1cccc(NC(=S)NCCCN2CCN(c3ccc(F)cc3)CC2)c1 | -66.7% |
| Cc1c(OCC(=O)N[C@@H](Cc2ccccc2)C(=O)O)ccc2c1oc(=O)c1ccccc12 | -7.9% |
| O=S(=O)(c1cc(Cl)cc(Cl)c1O)N1CCC2(CC1)OCCO2 | 9.71% |
| c1ccc(-c2cnc(CN3CCN(c4ccccc4)CC3)o2)cc1 | 4.9% |
| COC(=O)CS(=O)(=O)c1ccsc1C(=O)Nc1ccc(F)cc1 | 3.5% |
| O=c1[nH]nc(N/N=C/c2ccc(Cl)cc2Cl)c(=O)[nH]1 | -1.17% |
| O=C(CNC(=O)c1cccs1)NCC(=O)OCc1c(F)cccc1Cl | 21.4% |
| Clc1ccccc1-c1nnc2sc(-c3cccs3)nn12 | -4.57% |
| COc1cc(/C=N/NC(=O)c2cccc(S(=O)(=O)N3CCCC3)c2)ccc1O | -35.5% |
| CCC(C)(C)NC(=O)C(c1ccco1)N(C(=O)c1csnn1)c1cccc(F)c1 (stereo not drawn) | -24.4% |
| Nc1ccc(C(=O)[O-])cc1.O.[Na+] | 3.37% |
| CC#CC(=O)N1CCC(C(=O)Nc2ccc(Oc3ccccc3)nc2)CC1 | 1.55% |
